Values joined by “and” are separate entries in the source; they are usually repeats but may differ in a detail not shown here. Identical values can stand only once.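 These data come from cells grown in 96-well plates and exposed to compound for 48 hours at five concentrations. GI50 marks 50% less growth. TGI denotes the concentration required for complete inhibition of growth.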 Numbered stars: 1 amine (or outer) side, 2 acyl side, 3 side chain; on linkers, the order of the positions; unused ones are H or OH. Bridge positions count the residues as written; N and C are the ends. Square brackets hold non-standard residues; d marks the D form. Peptide text beside a SMILES is read from it. I, II: the chains in the order shown. Actinocin(9to1) = Cc1c2oc3c(C)ccc(C(=O)[*:1])c3nc-2c(C(=O)[*:2])c(N)c1=O; NMeT = CN[CH](C(=O)O)[CH](C)O; Sar = CNCC(=O)O
What follows are compounds tested on NCI-H322M lung (assay: NCI tumour cell line growth inhibition, 48 h).

| Structure (SMILES) | TGI [µM] | GI50 |
| --- | --- | --- |
| CCn1c(SCC(=O)N/N=C/c2ccccc2)nc2ccccc2c1=O | > 100 | – |
| C=C1C(=O)O[C@H]2[C@H]1CC/C(COC(=O)c1cc3ccccc3o1)=C\CC[C@@]1(C)O[C@@H]21 | 18.4 | 5.52 µM |
| COc1cccc2c1CCc1c(-c3ccc(F)cc3)cc(-c3ccc4ccccc4n3)nc1-2 | > 100 | – |
| CC(=O)[CH-]C(=O)c1ccccc1.CC(=O)[CH-]C(=O)c1ccccc1.CC(C)CCCC(C)[C@H]1CCC2[C@@H]3CC=C4C[C@@H]([O-])CC[C@]4(C)C3CC[C@@]21C.CC(C)CCCC(C)[C@H]1CCC2[C@@H]3CC=C4C[C@@H]([O-])CC[C@]4(C)C3CC[C@@]21C.[Ti+4] (stereo not given in full) | > 100 | > 100 µM |
| COc1ccc2nccc(SCC(=O)O)c2c1 | > 100 | – |
| CCN1C(=O)C(=C/C=C/C=C2/N(C)c3ccccc3C2(C)C)C(=O)N(CC)C1=S | > 100 | – |
| O=C(N/N=C/c1c(-c2ccccc2)no[n+]1[O-])N1CCOCC1 | > 100 | – |
| Clc1nssc1=Nc1nonc1-c1ccccc1 | > 100 | – |
| C[C@@H](O)[C@H](NC(=O)N[C@@H](CC(N)=O)c1nc([C@@H](N)CO)no1)C(=O)O | > 100 | > 100 µM |
| CC(C)(C)CC(C)(C)c1cc2c(O)c(c1)Cc1cc(C(C)(C)CC(C)(C)C)cc(c1O)Cc1cc(C(C)(C)CC(C)(C)C)cc(c1O)Cc1cc(C(C)(C)CC(C)(C)C)cc(c1O)Cc1cc(C(C)(C)CC(C)(C)C)cc(c1O)C2 | > 100 | – |
| O=C(O)CCCSc1ccccc1 | > 100 | – |
| COc1ccc(/C(COc2ccc3c(=O)c(-c4ccccc4)coc3c2)=N\O)cc1 | 33 | 5.56 µM |
| Cc1occc1C(=S)Nc1ccc(Cl)c(C(=O)OC(C(C)C)C(C)C)c1 | 38.7 | – |
| COC(=O)C1=C(O)c2cc(-c3ccccc3)c(-c3ccccc3)c(C#N)c2NC(=O)C1 | > 100 | – |
| CC(C)OP(=O)(OC(C)C)c1nc(-c2ccccc2)n(-c2ccc([N+](=O)[O-])cc2)n1 | > 100 | – |
| CCC(=O)Nc1ccccc1C#C/C=C\C#Cc1ccccc1SC | > 100 | > 100 µM |
| Cc1cccc(C)c1CO | > 100 | – |
| Cc1c(S(=O)(=O)O)ccc(N=Nc2c(O)c(C(=O)O)cc3ccccc23)c1Cl | > 100 | – |
| COc1cc(N2CCC(N3CCN(C)CC3)CC2)ccc1Nc1ncnc(Nc2ccccc2S(=O)(=O)C(C)C)n1 | 21.9 | 5.42 µM |
| Cc1c2c(cc[n+]1Cc1ccccc1)c1ccc(OCc3ccccc3)cc1n2Cc1ccccc1 | 2.26 | 1.02 µM |
| CSC1=Nc2ccccc2-c2nc3ccccc3cc2C1 | > 100 | – |
| CCOC(=O)NC1C2CC(=O)OC(O2)C1OC(C)=O (stereo not given) | > 100 | – |
| COc1cc2ncn(-c3cc(O[C@@H](C)c4ccccc4Cl)c(C(N)=O)s3)c2cc1OC | > 25 | 5.2 µM |
| CN=c1c2c(c3[nH]c4ccccc4c4cnc1c34)NCCC2=O | > 10 | – |

| Structure (SMILES) | TGI [µM] | GI50 |
| --- | --- | --- |
| CC[C@@H]1C(=O)OC[C@@H]1Cc1cncn1C | > 100 | – |
| CCCCN1CN2C(=O)C(C(=O)OCC)C(=O)c3sc4nc(SC)nc1c4c32 (stereo not given) | 27.1 | – |
| CC1=NN(c2cccc(Cl)c2)C2(SCC(=O)N2c2nc3ccccc3s2)/C1=C\c1ccc(N(C)C)cc1 (stereo not given) | > 100 | – |
| O=c1ccs[nH]1 | 76.6 | – |
| COc1cc(OC)c(SSCCCCS(=O)O)c(OC)c1 | 36.5 | – |
| CC(=C/C=C/C=C(C)\C=C\C=C(\C)C(=O)O)/C=C/C=C(/C)C(=O)O | > 100 | – |
| O=c1cc(N2CCN(CCCCCOc3cc(O)c4c(=O)cc(-c5ccccc5)oc4c3)CC2)c2ccccc2o1 | > 100 | > 100 µM |
| COc1ccc(-c2cc(-c3cccn3C)c(C#N)c(=O)[nH]2)cc1OC | > 100 | > 100 µM |
| CC(=O)CC(N)=O | > 100 | – |
| COc1ccc(N2C(=O)[C@H]3[C@H]4CC(C(C)(C)C)CC[C@H]4c4c(n(C)c5ccccc45)[C@H]3C2=O)cc1 (stereo not given in full) | > 100 | – |
| COc1ccc(C(=O)C(C(=O)CC(=O)Nc2cccc(C(F)(F)F)c2)c2ccc(OC)cc2)cc1 (stereo not given) | > 100 | – |
| Cc1ccc(Cc2cnc(NC(=O)/C=C/c3cccc(C)c3)s2)cc1 | > 100 | 0.448 µM |
| CC(=O)OC[C@]1(C)CCCC2(C)C1CCC1C=C(C)[C@H]3CCC12C3 (stereo not given in full) | > 100 | – |
| Nc1c2c(c(O)c3c1=C(CO)C=N3)=NCCS2 | 0.237 | 0.115 µM |
| C/C(=N\Nc1cc(C)c2ccccc2n1)c1ccccn1 | 3.05 | < 0.0254 µM |
| NC(N)=NS(=O)(=O)c1ccc(NNc2c3ccccc3nc3c(C(=O)Nc4ccc(S(=O)(=O)N=C(N)N)cc4)cccc23)cc1 | > 100 | – |
| O=C1c2ccccc2C(=O)N1CC1S(=O)(=O)OCCOS1(=O)=O | > 100 | – |
| Nc1nc(N)c2cc(-c3ccccc3)cnc2n1 | 42 | – |
| CC(=O)NC1=C(NC(C)(C)C)C(=O)c2ccccc2C1=O | > 100 | – |
| N#CC(C#N)=C/C=C(\Sc1c(Cl)c(Cl)nc(Cl)c1Cl)c1ccc(Cl)cc1 | 44.4 | – |
| CO[C@@H]1C[C@H]2[C@@H]3CC[C@H]([C@@H](C)CO)[C@@]3(C)CC[C@@H]2[C@@]2(C)CC[C@H]3C[C@]312 | > 100 | – |
| Cc1cc(O)cc2c1[C@]1(C)CCC3C(C)(C)CCC[C@]3(C)[C@H]1C2 (stereo not given in full) | 36.9 | 20.9 µM |
| C1CCCCC2(CCCCCCCCC3(CCC1)OCCO3)OCCO2 | > 100 | – |
| O=C1C=CC(=O)C12CCc1ccccc12 | > 100 | – |

| Structure (SMILES) | TGI [µM] | GI50 |
| --- | --- | --- |
| CCCCCCCCCCCCN1[C@H]2CCC[C@H]2C(O)[C@@H]2CCC[C@@H]21 (stereo not given in full) | > 100 | – |
| COc1cc2c(cc1OC)-c1ccc3cc4c(cc3c1N(CCCn1ccnc1)C2)OCO4 | 66.7 | 16.2 µM |
| O=C1c2ccccc2-c2oc(=O)c3ccccc3c21 | > 100 | – |
| COC(=O)C1=CSC2(S1)C(C(=O)OC)=CSc1c2ssc1=O (stereo not given) | 14.2 | – |
| CC(=O)OC1CCn2nnc(CO)c21 (stereo not given) | > 100 | – |
| COc1cc2nc(-c3cccs3)nc(N3CCN(c4ccccc4C(F)(F)F)CC3)c2cc1OC | > 100 | – |
| CCCCCCCCCCCCCCCCCCN(C)C(COC)COP(=O)([O-])OCC[N+](C)(C)C (stereo not given) | 21 | – |
| CC(C)C[C@H](NC(=O)Cn1ccc(NCc2ccccc2)cc1=O)B(O)O | > 100 | > 62.5 µM |
| C=C(C#N)C1OCC2OC(C)(C)OC21 (stereo not given) | > 100 | – |
| C/C=C1\C=C(OC)CN(CCc2c[nH]c3ccccc23)C1 | > 100 | – |
| CC(NO)/C(=N/O)c1ccco1 (stereo not given) | > 10 | – |
| Cc1c2oc3c(C)ccc(C(=O)NC4C(=O)NC(C(C)C)C(=O)N5CCCC5C(=O)N(C)CC(=O)N(C)C(C(C)O)C(=O)OC4C)c3nc-2c(C(=O)NC2C(=O)NC(C(C)C)C(=O)N3CCCC3C(=O)N(C)CC(=O)N(C)C(C(C)O)C(=O)OC2C)c(N)c1=O (stereo not given) (I: TVP[Sar][NMeT] / II: TVP[Sar][NMeT]; ester I:1-I:C, II:1-II:C; linker I:N-II:N via Actinocin(9to1); configuration not given here) | > 100 | 8.07 µM and > 1 µM |
| Cc1ccc(/C(O)=C/c2nc3c(nc2NC24CC5CC(CC(C5)C2)C4)c(=O)oc2ccccc23)cc1 | > 100 | – |
| CC(=O)O/C=C1/C[C@H]2[C@@H]3CCC4CC(C(C)=O)CC[C@]4(C)[C@H]3CC[C@]2(C)C1=O (stereo not given in full) | > 100 | – |
| O=C(c1c(F)c(F)c(F)c(F)c1F)N1CCN(C(=O)c2c(F)c(F)c(F)c(F)c2F)C1=S | 29.9 | – |
| Nc1c2ccccc2nc2ccc3c(=O)cc(-c4ccccc4)oc3c12 | 2.28 | – |
| COc1cccc2c1CCc1cc3c(N)nc(N)nc3nc1-2 | 8.74 | – |
| O=C1[C@H]2ON(c3ccccc3)C(c3ccccc3)[C@H]2C(=O)N1c1ccc(Cc2ccc(N3C(=O)[C@@H]4ON(c5ccccc5)C(c5ccccc5)[C@@H]4C3=O)cc2)cc1 (stereo not given in full) | > 100 | – |
| Nc1nc2c(c(=O)[nH]1)C(c1ccccc1)CC(=O)N2 (stereo not given) | > 100 | – |
| CCO/C=N\c1c(C#N)c(-c2ccc(Cl)cc2)cn1-c1ccc(C)cc1 | > 100 | – |
| O=C1CC(=O)N(C(=O)c2nn(-c3ccc(Cl)cc3)cc2O)N1 | > 57.7 | 0.478 µM |
| COc1ccc(C2SCC(=O)N2NC(=O)c2ccncc2)cc1F (stereo not given) | > 100 | – |
| CCOc1ccc(N=Cc2ccc3cc(C)ccc3n2)cc1 | > 100 | – |
| NC(=O)CCC(Nc1c2ccccc2nc2ccccc12)C(=O)O (stereo not given) | > 100 | – |

| Structure (SMILES) | TGI [µM] | GI50 |
| --- | --- | --- |
| Cc1nc(C(N)=S)sc1C(=O)CC(=O)C(=O)Nc1ccccc1[N+](=O)[O-] | > 100 | – |
| O=C1CCCCCCCCCCC1CCCCCBr (stereo not given) | 84.5 | – |
| N#Cc1c(=O)c2ccccc2n2c1[nH]c1ccccc12 | > 100 | – |
| CCN(CC)c1ccc2cc(C(N)=S)c(=N)oc2c1 | > 100 | – |
| Cc1c(CCN2CCOCC2)c(N2CCOCC2)n2c(nc3ccccc32)c1C#N | > 10 | – |
| CCOC(=O)N1c2c(ccn2C)-c2ccn(C)c2N1C(=O)OCC | 65.2 | – |
| CNC/C(Cl)=N/S(=O)(=O)c1ccc(C)cc1 | > 100 | – |
| CC12CCC(C(Nc3cc(C(F)(F)F)cc(C(F)(F)F)c3)C1=O)C2(C)C (stereo not given) | > 100 | – |
| O=C(c1ccccc1)c1c(-c2ccccc2)sc2nc3ccccc3nc12 | > 100 | – |
| CCN(CC)CCC(=O)c1ccc(C)cc1 | > 100 | – |
| CN(C)CCCn1c(Cc2ccc(Cl)cc2)nc2cc(C(F)(F)F)ccc21 | 30.6 | – |
| CN1C/C(=C\c2cccs2)C2=NN(C)C(c3cccs3)C2C1 (stereo not given) | > 100 | – |
| CCOC(=O)/C(=C\c1ccc(N(CCC#N)CCC#N)cc1)NC(=O)c1cc([N+](=O)[O-])ccc1Cl | > 100 | – |
| CC(=O)c1cccc(C)c1C(=O)O | > 100 | – |
| O=c1[nH]/c(=C/c2ccc(OCc3ccccc3)cn2)c(=O)[nH]/c1=C/c1ccc(F)cc1 | > 43.9 | – |
| Nc1ccc2c(=O)cc(-c3cccs3)[nH]c2n1 | > 100 | – |
| CC1C/C(=C\c2ccc(OC(=O)C(C)(C)C)cc2)C(=O)/C(=C/c2ccc(OC(=O)C(C)(C)C)cc2)C1 (stereo not given) | > 100 | – |
| Oc1cc2c3c(c1)CCCN3CCC2 | > 10 | – |
| CCN(CC)CCCNC(=O)C1COc2cc(-c3cc(=O)c4ccccc4o3)ccc2O1 (stereo not given) | > 100 | – |
| CC1=C(C(=O)Nc2cc(=O)n(C)c(=O)n2C)C(c2cccc([N+](=O)[O-])c2)C(C(=O)Nc2cc(=O)n(C)c(=O)n2C)=C(C)N1 | > 100 | – |
| COc1ccc2cc3[nH]c(=O)cc(O)c3cc2c1OC | > 100 | – |
| COc1cc(S(=O)(=O)Nc2nc(-c3ccc(N4C(=O)/C(=C/C=C/c5ccccc5)N=C4c4ccccc4)cc3)cs2)ccc1Cl | > 100 | – |
| O=P1(Oc2ccc(Cl)cc2Cl)Oc2ccc3ccccc3c2-c2c(ccc3ccccc23)O1 | 57.1 | – |
| CS(=O)(=O)CCNCc1ccc(-c2ccc3ncnc(Nc4ccc(OCc5ccccc5)c(Br)c4)c3c2)o1 | > 25 | 2.37 µM |

— PubChem BioAssay (NCI)
